# Reference: PMC4336329 (PLoS ONE, 2015)
# Screen size: about 310,000 compounds; about 14,000 (4.5%) showed an effect of 50% or more. The effect is printed as a negative number. This is one part of the list.
# Biological target: human ether-à-go-go-related gene (hERG) potassium channel (human, UniProt Q12809)
# Experiment: primary screen, population patch clamp on CHO cells stably expressing hERG
# 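Note: peak tail current of the secondary pulse compared with the same well before compound.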
# Sequence of human ether-à-go-go-related gene (hERG) potassium channel (Q12809 whole entry, looked up): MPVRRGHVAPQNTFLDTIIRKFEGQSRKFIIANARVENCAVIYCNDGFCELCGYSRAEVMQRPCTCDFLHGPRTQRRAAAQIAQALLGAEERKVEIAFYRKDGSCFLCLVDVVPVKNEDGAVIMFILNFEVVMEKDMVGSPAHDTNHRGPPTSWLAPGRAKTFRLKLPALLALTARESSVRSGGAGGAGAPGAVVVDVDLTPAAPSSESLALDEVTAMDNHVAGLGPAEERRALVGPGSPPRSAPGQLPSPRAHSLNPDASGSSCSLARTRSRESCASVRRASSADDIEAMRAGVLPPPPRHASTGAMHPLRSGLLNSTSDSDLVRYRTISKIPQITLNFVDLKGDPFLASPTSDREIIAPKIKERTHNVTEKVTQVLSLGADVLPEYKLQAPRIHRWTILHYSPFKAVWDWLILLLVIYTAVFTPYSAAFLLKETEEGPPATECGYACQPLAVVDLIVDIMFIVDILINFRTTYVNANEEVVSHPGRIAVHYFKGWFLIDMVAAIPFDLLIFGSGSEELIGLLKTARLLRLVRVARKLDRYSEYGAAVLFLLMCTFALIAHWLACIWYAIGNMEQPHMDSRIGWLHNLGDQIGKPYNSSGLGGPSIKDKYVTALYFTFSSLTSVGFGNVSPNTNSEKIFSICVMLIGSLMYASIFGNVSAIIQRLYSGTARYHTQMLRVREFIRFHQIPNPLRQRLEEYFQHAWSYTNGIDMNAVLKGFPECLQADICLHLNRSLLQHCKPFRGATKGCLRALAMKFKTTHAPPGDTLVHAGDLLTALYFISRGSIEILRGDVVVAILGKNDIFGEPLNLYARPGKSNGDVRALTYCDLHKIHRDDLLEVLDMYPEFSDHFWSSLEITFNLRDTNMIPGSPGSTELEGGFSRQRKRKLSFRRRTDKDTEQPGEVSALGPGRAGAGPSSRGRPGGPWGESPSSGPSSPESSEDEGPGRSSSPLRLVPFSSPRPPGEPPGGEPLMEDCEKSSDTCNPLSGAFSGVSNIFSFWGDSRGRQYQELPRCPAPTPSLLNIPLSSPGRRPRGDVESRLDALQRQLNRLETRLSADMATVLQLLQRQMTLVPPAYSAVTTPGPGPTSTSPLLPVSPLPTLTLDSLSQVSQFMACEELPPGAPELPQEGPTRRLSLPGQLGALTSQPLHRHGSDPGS
row,SMILES,"hERG current change (%, negative = inhibition) at 10uM [%]"
1,O=C(N[C@@H](Cc1ccccc1)C(=O)N1CCN(S(=O)(=O)c2cccc(F)c2)CC1)c1ccco1,-25.2
2,CO/N=C(/CN1CCCCC1)c1ccc(Cl)cc1,8.9
3,CCOc1nc2ccccc2nc1NS(=O)(=O)c1ccc(Cl)cc1,-40.6
4,O=C(O)CC1C(=O)NCCN1Cc1cccs1 (stereo not drawn),8.09
5,CS(=O)c1ccccc1O (stereo not drawn),4.04
6,O=C(CC(NS(=O)(=O)c1ccc(Cl)cc1)c1ccco1)NC1CCCC1 (stereo not drawn),-8
7,O=S(=O)(c1cc(O)ccc1O)c1cccc2c(S(=O)(=O)c3cc(O)ccc3O)cccc12,10.8
8,COc1ccc(Cl)cc1NC(=O)CN(C)C(=O)c1cc2ccccc2cc1O,6.92
9,CC(=O)Cn1c(CN2CCCC2)nc2ccccc2c1=O,17.2
10,Cc1ccc(C(=O)NCc2ccc(Cl)cc2)cc1S(=O)(=O)N1CCCCC1,-0.995
11,COC(=O)CCC(=O)OC1(C)C(=O)C2=CN(CCc3ccccn3)C(c3ccc(OC)cc3)=CC2=C(Br)C1=O (stereo not drawn),-14.8
12,CC1CC2=C(NC(=S)NC2c2ccccc2F)/C(=C/c2ccccc2F)C1 (stereo not drawn),25.8
13,Cc1ncsc1CCC(=O)N1CCCC(Nc2ccc(C(C)C)cc2)C1 (stereo not drawn),6.96
14,O=C(CN1C(=O)COc2ccccc21)NCCCN1CCCC1,18.2
15,Cc1ccc(N(C)C(=O)Oc2cccc3cccnc23)cc1,3.78
16,COc1cccc(N2CC(C(=O)Nc3c(C(N)=O)oc4ccccc34)CC2=O)c1 (stereo not drawn),-22.1
17,O=C(O)CCCC(=O)NS(=O)(=O)c1ccc(Cl)cc1,14
18,O=C(COc1ccccc1)N1CCN=C1SCc1ccccc1F,-8.1
19,Cc1ccc(Cn2nnc3c(=O)n(Cc4cccc(C)c4)cnc32)cc1,3.21

row,SMILES,"hERG current change (%, negative = inhibition) at 10uM [%]"
1,CCOC(=O)C(C)n1nc(C)c2sc3ccccc3c2c1=O (stereo not drawn),-0.525
2,COc1cc(NC(=O)COC(=O)c2ccccc2SCC(=O)N2CCCC2)cc(OC)c1,-25.7
3,CN1CCN(c2ccc(CNC(=O)c3cc4ccccc4o3)cc2)CC1,-26.7
4,Cc1ccc(NCc2nc3ccccc3n2C)c(C)c1,-1.8
5,Cc1cc(=O)[nH]c(Nc2ccc(N(C)C)cc2)n1,19.1
6,Cc1ccc(NC(=O)c2ccc(CSc3nnc(C)s3)cc2)cc1,13
7,CCOc1ccc(C2C(C(=O)Nc3cc(C)on3)c3ccccc3C(=O)N2CCN2CCOCC2)cc1 (stereo not drawn),8.34
8,Cc1ccccc1C(=O)NNC(=O)c1ccc(F)cc1,-0.456
9,O=C1CSc2ccc(C(=O)Nc3cccc(S(=O)(=O)Nc4ccc(Br)cc4)c3)cc2N1,15
10,Cc1ccc(NC(=O)c2ccsc2)cc1NS(C)(=O)=O,7.54
11,O=C1CC(c2ccc(F)cc2)Cc2nc(NCc3ccco3)ncc21 (stereo not drawn),11.4
12,CCc1ccc2c(c1)C(c1ccc([N+](=O)[O-])cc1)=NNC(c1ccc(C)cc1)=N2,-0.901
13,O=C(CCC1CCCN(C(=O)c2cc(C3CC3)[nH]n2)C1)N1CCN(c2ccccn2)CC1 (stereo not drawn),13.2
14,CC(C)CN(C(=O)c1ccc(Br)o1)C1CCS(=O)(=O)C1 (stereo not drawn),-7.11
15,O=C(Nc1ccc(S(=O)(=O)N2CCCC2)cc1)c1cccs1,67.1
16,O=C(NC1CCCCC1)/C(=N\O)c1ccccn1,18
17,COc1ccc(S(=O)(=O)NC2CCCC2)cc1Cl,-7.32
18,C=CCOc1ccc(C(=O)Nc2ncn[nH]2)cc1,23.5
19,CC(C)c1cc(-c2cc(C(=O)NCc3ccccc3)on2)nc(NC2CCCC2)n1,3.5

row,SMILES,"hERG current change (%, negative = inhibition) at 10uM [%]"
1,CCNC(=S)N(CCc1c(C)[nH]c2ccc(C)cc12)Cc1cccnc1,-8.61
2,Cc1cc(C)cc(Oc2coc3cc(O)ccc3c2=O)c1,-4.46
3,C/C(CC(=O)Nc1ccc(OCc2ccccc2)cc1)=N\NC(=O)C(=O)Nc1cccc(C)c1,21.8
4,C=CCn1c(SCc2ccc(Cl)c(Cl)c2)nnc1C(CO)NC(=O)c1ccc(OC)cc1 (stereo not drawn),-34
5,O=C1CCc2cc(S(=O)(=O)NCCC(=O)N3CCN(c4cccc(Cl)c4)CC3)ccc2N1,-41
6,Cc1cccc(N2CCN(C(=O)C3(S(=O)(=O)c4ccc(Cl)cc4)CC3)CC2)c1C,-6.74
7,COC(=O)c1c(NC(=O)Cc2ccccc2)sc2c1CC(C)(C)NC2(C)C,-11.1
8,OCC1(CCc2ccccc2)CCN(Cc2ccccc2Cl)CC1,-86
9,Cc1ccc(NC(=O)CN(C)C(=O)COC(=O)CNS(=O)(=O)c2ccc(F)c(F)c2F)cc1,-23.8
10,C=CCOC(=O)C1=C(C)NC(SCC(=O)OCC)=C(C#N)C1c1ccc(C)cc1 (stereo not drawn),-10.9
11,COc1ccc(N(C(=O)c2snc(C(N)=O)c2N)C(C(=O)NC2CCCC2)c2cccs2)c(OC)c1 (stereo not drawn),-21.1
12,O=C(CN1C(=O)/C(=C/c2ccco2)SC1=S)NC1CCS(=O)(=O)C1 (stereo not drawn),2.47
13,Cc1ccc2[nH]c3c(=S)nc[nH]c3c2c1,18.9
14,S=C(NCCN1CCOCC1)Nc1ccc(Cl)c(Cl)c1,-10.5
15,COc1ccc(N2CCN(C(=S)NCCc3ccccc3)CC2)cc1,-5.71
16,O=C(CNc1ccccc1)NN=C1CCCC1,25.9
17,Cc1cc(Cl)ccc1OCCCC(=O)Nc1cccnc1,-20.7
18,CCc1nnc(NC(=O)CCc2ccc(C)o2)s1,1.71
19,Cc1ccc(OCCn2cccc2/C=C2/C(=O)NC(=O)N(Cc3ccco3)C2=O)cc1,-0.631
